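These data come from cells grown in 96-well plates and exposed to compound for 48 hours at five concentrations. GI50 marks 50% less growth. TGI: concentration producing complete growth inhibition.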
What follows are compounds tested on NCI-H322M lung (assay: DTP human tumour cell line panel, 48 h).

| SMILES | GI50 [µM] | TGI [µM] |
| --- | --- | --- |
| O=C(Nc1n[nH]c2cc(-c3ccccc3)ccc12)C1CC1 | > 25 | > 25 |
| O=C(NCP(=O)(c1ccccc1)c1ccccc1)OCc1ccccc1 |  | > 100 |
| Cc1ccc2c(c1)CC1(Cc3ccccc3C1=O)C2=O (stereo not drawn) |  | > 100 |
| COc1ccc2c3c([nH]c2c1[N+](=O)[O-])C(C)N(C)CC3 (stereo not drawn) |  | > 100 |
| N#C/C(=C/NC(N)=S)C(N)=O |  | > 100 |
| CCOC(=O)c1c(N2CCOCC2)[nH]c(=O)c(C(c2c(Cl)cccc2Cl)c2c(O)c(C(=O)OCC)c(N3CCOCC3)[nH]c2=O)c1O |  | 32.9 |
| O=C(c1cccs1)N1CCc2ccccc2C1 |  | > 100 |
| COC(=O)CC1N=C(NC#N)N(CCc2c[nH]c3ccccc23)C1=O (stereo not drawn) |  | > 100 |
| [N-]=[N+]=C1C(=O)NN=C1c1ccccc1 |  | > 100 |
| CCOC(=O)c1cc2c3ccn(Cc4ccccc4)c3c3c(C)[nH]oc3c2n1 |  | > 100 |
| CC(C)c1ccc(-c2cc(-c3cn[nH]c3-c3ccccn3)ccn2)cc1 | > 25 | > 25 |
| C/C(=N/NC(N)=S)c1ccc[nH]1 |  | > 100 |
| CC(=O)Oc1ccc2cc(-c3ccccc3OC(C)=O)c(=O)oc2c1 |  | > 100 |
| Cc1[nH]c(=O)nc2[nH][nH]c(=O)c12 |  | > 100 |
| CC1CC2=C(S(=O)(=O)c3ccccc3)CC(S(=O)(=O)c3ccccc3)(S(=O)(=O)c3ccccc3)CC21 (stereo not drawn) |  | > 100 |
| c1ccc(C2N3CCCCC3[C@@H]3c4[nH]c5ccccc5c4CCN23)nc1 (stereo partly drawn) |  | > 100 |
| CC1=CC(C)(C)N=C2SC(c3ccc(N)cc3)=NN12 |  | > 100 |
| Cc1cc(NS(=O)(=O)c2ccc(Nc3c4ccccc4nc4c(C(=O)N5CCN(CCO)CC5)cccc34)cc2)no1 |  | > 100 |
| CCOc1ncn(-c2ccc(NC(=S)NC3OC(CO)C(O)C(O)C3O)cc2)n1 (stereo not drawn) |  | > 100 |
| CCOC(=O)/C(C)=C(/O)C(=O)OCC |  | > 100 |
| O=C(Nc1cc(Cl)c(Cl)cc1Cl)C(=O)C1C(=O)NC(=S)NC1=O |  | > 100 |

| SMILES | GI50 [µM] | TGI [µM] |
| --- | --- | --- |
| CCOC(C)O[C@H]1C(=O)OCC1(C)C (stereo partly drawn) |  | > 100 |
| Cc1cc(NC(=S)SCc2ccc(F)cc2)c([N+](=O)[O-])cc1C |  | > 100 |
| CC(=O)C1Cn2c(nc3ccccc32)C[Se]1 (stereo not drawn) |  | 13.5 |
| Cn1c(O)c(C(=O)NC2CCCCC2)c(=O)n(C)c1=S |  | 31.5 |
| N#Cc1cc(-c2cc3ccccc3o2)oc1N | 3.81 | 26.6 |
| C=C(C)[C@@H]1CC[C@]2(CO)CC[C@]3(C)[C@H](CC[C@@H]4[C@@]5(C)C=C(C#N)C(=O)C(C)(C)[C@@H]5CC[C@]43C)[C@@H]12 | 1.35 | 4.06 |
| COC(=O)c1cc2c(cc1Cl)Sc1nnc(Nc3ccc(C)cc3)n1S2(=O)=O |  | 22.2 |
| COC(=O)[C@@]12C(=O)C=CC(=O)C1C1C(=CC2C)OC2OC3(CCCCC3)OC21 (stereo partly drawn) |  | 32.6 |
| Cn1cc(C2(C)CC(C)(C)c3c2n(C)c2ccccc32)c2ccccc21 (stereo not drawn) |  | > 100 |
| COc1ccc(C(=O)c2cc(OC)c(OC)c(OC)c2)cc1/C=C/C(=O)c1ccc(F)cc1 | 15.4 | 40 |
| CCC(C)NC1=NCC(C)S1 (stereo not drawn) |  | > 100 |
| CC(C)OC(=O)/C=C/C(=O)O/C=C/[N+](=O)[O-] |  | > 100 |
| CC(=O)O[C@H]1CCC2[C@@H]3CC[C@]4(C)CC(=O)C=C[C@]4(C)C3CC[C@@]21C (stereo partly drawn) |  | > 100 |
| COc1ccc(CN2CC(C)(C)C2=O)c(OC)c1 |  | > 100 |
| COc1ccc(C2=C(Cl)c3cc(OC)c(OC)cc3C2Cl)cc1 (stereo not drawn) |  | 33.3 |
| O=C(NC(Cc1ccccc1)(Cc1ccc(O)cn1)C(=O)O)c1ccccc1 (stereo not drawn) |  | > 100 |
| CC1=CCC(O)C=CC(C)C(O)C(C)C=C(C)C(=O)c2c(O)c(C)cc3c2C(=O)C(N)=C(NC(=O)/C=C\C=C/C=CC(C)C(O)CC1=O)C3=O (stereo not drawn) |  | > 100 |
| N#C[C@@H](c1ccccn1)c1ncccc1[N+](=O)[O-] |  | > 100 |
| Cc1ccc([N+](=O)[O-])c2c(NCCC[N+](C)(C)[O-])c3ccccc3nc12 |  | 6.04 |
| COc1ccc(S(=O)(=O)c2ccccc2[N+](=O)[O-])cc1 |  | > 100 |
| COc1cc2c(cc1OCCCCC(=O)Nc1cc3c4ccccc4ccc3c3ccccc13)N=C[C@@H]1CCCN1C2=O | 4.9 | 24.3 |

Reference: PubChem BioAssay (NCI)
